# Results published in the supplement of paper PMC9446081.
# Screen size: about 39,000 compounds; about 220 (0.56%) showed activity. The list shows a part of the results.
# Tested on: Escherichia coli K-12 BW25113
# Experiment: relative growth (OD600 normalised to plate interquartile mean) (fraction); higher = less growth inhibition, active = 0.2 or less
# Conditions: 50 µM; LB; incubation time: overnight (16-24 h)
# 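Also: static incubation at 37 °C against the wild-type strain, values averaged over two biological replicates.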
row,SMILES,relative growth
1,COc1ccc(NC(=O)N(C)C[C@@H]2Oc3c(NS(=O)(=O)c4cn(C)cn4)cccc3C(=O)N([C@@H](C)CO)C[C@H]2C)cc1,inactive: 0.991
2,C[C@@H]1CN([C@@H](C)CO)C(=O)Cc2cc(NC(=O)Cn3cnnn3)ccc2O[C@@H]1CN(C)S(=O)(=O)c1ccc(Cl)cc1,inactive: 0.971
3,COc1ccccc1OCCNCC(O)COc1cccc2[nH]c3ccccc3c12.O=P(O)(O)O (stereo unspecified),inactive: 0.531
4,C[C@H]1CN([C@@H](C)CO)C(=O)c2cccc(NC(=O)C3CC3)c2O[C@@H]1CN(C)S(=O)(=O)c1ccc(F)cc1,inactive: 0.99
5,C[C@@H]1CN([C@H](C)CO)C(=O)CCCn2cc(nn2)CO[C@H]1CN(C)C(=O)Nc1ccc(C(C)(C)C)cc1,inactive: 0.984
6,C[C@@H]1CN([C@@H](C)CO)C(=O)c2cccc(NC(=O)C3CC3)c2O[C@@H]1CN(C)S(=O)(=O)c1ccc(F)cc1,inactive: 0.994
7,C[C@@H]1CN([C@H](C)CO)S(=O)(=O)c2ccc(Br)cc2O[C@H]1CN(C)C(=O)Nc1ccccc1,inactive: 0.992
8,C[C@@H]1CCCCO[C@H](CN(C)Cc2ccc(C(F)(F)F)cc2)[C@H](C)CN([C@H](C)CO)C(=O)c2cc(NC(=O)Cc3ccccc3)ccc2O1,inactive: 1.02
9,COc1ccc(CCN(C)CCCOc2ccc(S(=O)(=O)c3[nH]c4ccccc4c3C(C)C)cc2)cc1OC,inactive: 1.03
10,OC[C@H]1O[C@H](O)C[C@@H](O)[C@@H]1O,inactive: 0.927
11,C[C@H](CO)N1C[C@H](C)[C@H](CN(C)S(=O)(=O)c2ccc(F)cc2)Oc2c(NC(=O)Nc3ccc(C(F)(F)F)cc3)cccc2C1=O,inactive: 0.975
12,C[C@@H]1CN([C@H](C)CO)C(=O)c2cc(NS(C)(=O)=O)ccc2O[C@@H](C)CCCCO[C@@H]1CN(C)S(=O)(=O)c1ccc(F)cc1,inactive: 0.989
13,CCCN(CCC)CCc1cccc2c1CC(=O)N2.Cl,inactive: 1.19
14,c1coc(CNC[C@H]2Cn3nncc3CO2)c1,inactive: 0.963
15,COc1cc(CO)cc(I)c1O[C@H]1C=C(C(=O)NCCO)C[C@@H](NC[C@@H]2CCCO2)[C@@H]1O,inactive: 0.982
16,COc1cccc(S(=O)(=O)N(C)C[C@H]2Oc3ncc(C#CC(C)C)cc3C(=O)N([C@H](C)CO)C[C@H]2C)c1,inactive: 0.997
17,O=C(C[C@H]1C[C@@H]2c3cc(NS(=O)(=O)c4ccc(F)cc4)ccc3O[C@@H]2[C@H](CO)O1)NCc1cccnc1,inactive: 1.03
18,Cc1noc(C)c1NC(=O)Nc1ccc2c(c1)C(=O)N([C@H](C)CO)C[C@@H](C)[C@H](CN(C)Cc1ccc(C(F)(F)F)cc1)OCCCC[C@H](C)O2,inactive: 0.917
19,Cc1ccc(S(=O)(=O)Nc2cccc3c2O[C@@H](CN(C)Cc2ccc(C(F)(F)F)cc2)[C@@H](C)CN([C@H](C)CO)C3=O)cc1,inactive: 1.04
20,C[C@@H]1CN([C@H](C)CO)C(=O)c2cccc(NS(=O)(=O)c3ccc(F)cc3)c2O[C@@H]1CN(C)C(=O)Nc1cccc2ccccc12,inactive: 0.986
21,CO[C@@H]1CN(C)C(=O)c2ccc(NS(=O)(=O)CC(F)(F)F)cc2OC[C@@H](C)N(C(=O)NC(C)C)C[C@@H]1C,inactive: 0.978

row,SMILES,relative growth
1,COc1ccc(CN(C)C[C@@H]2OCCCC[C@H](C)Oc3ccc(NC(=O)Nc4ccc(OC)cc4)cc3C(=O)N([C@@H](C)CO)C[C@@H]2C)cc1,inactive: 0.971
2,Cc1noc(C)c1NC(=O)N(C)C[C@@H]1OCCCC[C@H](C)Oc2ccc(NC(=O)C3CCCCC3)cc2C(=O)N([C@@H](C)CO)C[C@@H]1C,inactive: 1.04
3,Cc1noc(C)c1S(=O)(=O)Nc1ccc2c(c1)C(=O)N([C@H](C)CO)C[C@H](C)[C@H](CN(C)Cc1ccncc1)O2,inactive: 0.999
4,C[C@@H]1CN([C@H](C)CO)C(=O)CCCn2nncc2CO[C@H]1CN(C)C(=O)Nc1ccc2c(c1)OCCO2,inactive: 0.995
5,C[C@H](O)C#Cc1ccc2c(c1)O[C@@H](CN(C)C(=O)c1ccccc1)[C@@H](C)CN([C@@H](C)CO)S2(=O)=O,inactive: 1.01
6,CN(C)CC(=O)N1CC2(C1)[C@H](c1ccccc1)[C@H](CO)N2S(C)(=O)=O,inactive: 0.98
7,COc1ccc(S(=O)(=O)Nc2ccc3c(c2)C(=O)N([C@@H](C)CO)C[C@H](C)[C@H](CN(C)Cc2ccc(Oc4ccccc4)cc2)O3)cc1,inactive: 0.961
8,CCOC(=O)CC(=O)N1CCSC1COc1ccccc1OC (stereo unspecified),inactive: 1.11
9,CC(C)(C)[S@](=O)N1Cc2cc(C(=O)NCc3ccccc3F)nc(-c3cccc(-c4ccncc4)c3)c2[C@@H]1CCO,inactive: 1.01
10,C[C@@H]1CN([C@@H](C)CO)C(=O)Cc2cc(NC(=O)C3CC3)ccc2O[C@@H]1CN(C)S(=O)(=O)c1ccc(F)cc1,inactive: 0.996
11,CC(=O)Oc1ccc(C(c2ccc(OC(C)=O)cc2)c2ccccn2)cc1,inactive: 1.08
12,C/C=C1/[C@H](O[C@@H]2O[C@H](CO)[C@@H](O)[C@H](O)[C@H]2O)OC=C(C(=O)OC)[C@H]1CC(=O)OCCc1ccc(O)c(O)c1,inactive: 1
13,O=C(C[C@@H]1C[C@H]2c3cc(NC(=O)c4ccc5c(c4)OCO5)ccc3O[C@H]2[C@H](CO)O1)NCc1ccc(Oc2ccccc2)cc1,inactive: 1.06
14,C[C@@H]1CN([C@@H](C)CO)C(=O)c2cc(NC(=O)CCC(F)(F)F)ccc2O[C@@H](C)CCCCO[C@@H]1CN(C)C(=O)Nc1ccccc1,inactive: 0.968
15,C[C@H](CO)N1C[C@H](C)[C@@H](CN(C)S(=O)(=O)c2ccc(F)cc2)OCCCC[C@H](C)Oc2ccc(NC(=O)C3CCCCC3)cc2C1=O,inactive: 1.02
16,Cc1noc(C)c1S(=O)(=O)N(C)C[C@H]1OCCCC[C@H](C)Oc2ccc(NS(=O)(=O)c3cn(C)cn3)cc2C(=O)N([C@H](C)CO)C[C@@H]1C,inactive: 0.996
17,COc1ccc(NC(=O)N(C)C[C@H]2OCCCC[C@@H](C)Oc3ccc(NS(=O)(=O)c4ccc(C)cc4)cc3C(=O)N([C@@H](C)CO)C[C@@H]2C)cc1,inactive: 0.992
18,O=C(NC1(c2ccccc2)CC1)c1c(CN2CCC(N3CCCCC3)CC2)c(-c2cccc(C(F)(F)F)c2)nc2cc(Br)ccc12,inactive: 0.984
19,C=c1cc(C)ccc1=C1NN=C(N)O1,inactive: 0.991
20,C[C@H](CO)N1C[C@H](C)[C@H](CN(C)Cc2ccccc2)Oc2c(NC(=O)c3cnccn3)cccc2C1=O,inactive: 1
21,C[C@@H]1CN([C@@H](C)CO)C(=O)c2cccc(NC(=O)C3CCCCC3)c2O[C@@H]1CN(C)Cc1ccc(Oc2ccccc2)cc1,inactive: 1.03

row,SMILES,relative growth
1,COc1ccc(C#Cc2cnc3c(c2)C(=O)N([C@@H](C)CO)C[C@H](C)[C@H](CN(C)C(=O)CC2CC2)O3)cc1,inactive: 1.01
2,CN(C)Cc1cn(CC[C@H]2CC[C@H](NS(=O)(=O)c3ccccc3)[C@@H](CO)O2)nn1,inactive: 0.983
3,COC(=O)[C@@H](NC(=O)c1cc(C)on1)C(C)C,inactive: 0.95
4,C[C@@H]1CN([C@H](C)CO)C(=O)c2cc(NC(=O)NC3CCCCC3)ccc2O[C@@H](C)CCCCO[C@H]1CN(C)Cc1ccc(C(F)(F)F)cc1,inactive: 1.01
5,COc1ccc(NC(=O)Nc2ccc3c(c2)C(=O)N([C@H](C)CO)C[C@H](C)[C@@H](CN(C)Cc2ccc(C(F)(F)F)cc2)O3)cc1,inactive: 0.91
6,C#CCN(C)C1CCN(C(C)=O)CC1,inactive: 0.989
7,Cc1ccc(Nc2nnc(-c3ccccc3)c3ccccc23)cc1,inactive: 0.988
8,C[C@@H]1CCCCO[C@@H](CN(C)C(=O)Nc2ccccc2)[C@@H](C)CN([C@H](C)CO)C(=O)c2cc(NC(=O)Nc3ccc(F)cc3)ccc2O1,inactive: 0.88
9,C[C@@H]1CN([C@H](C)CO)C(=O)c2cc(NC(=O)Nc3ccccc3)ccc2O[C@@H](C)CCCCO[C@@H]1CN(C)Cc1ccc(C(F)(F)F)cc1,inactive: 1
10,CCCC(=O)Nc1ccc2c(c1)OC[C@@H](C)N(S(=O)(=O)c1cn(C)cn1)C[C@H](C)[C@H](OC)CN(C)C2=O,inactive: 1.02
11,O=C(C[C@@H]1C=C[C@@H](NC(=O)c2cccnc2)[C@H](CO)O1)NCCN1CCCCC1,inactive: 1.01
12,COCC#Cc1ccc2c(c1)O[C@H](CN(C)C(=O)c1ccccc1)[C@H](C)CN([C@@H](C)CO)S2(=O)=O,inactive: 1.01
13,C[C@@H]1CN([C@H](C)CO)C(=O)c2cc(NC(=O)Nc3cccc4ccccc34)ccc2O[C@H]1CN(C)Cc1ccc(Cl)c(Cl)c1,inactive: 1.02
14,CC(C)NC(=O)N(C)C[C@@H]1Oc2ccc(NC(=O)CCC(F)(F)F)cc2C(=O)N([C@@H](C)CO)C[C@H]1C,inactive: 0.956
15,Cc1noc(C)c1S(=O)(=O)Nc1cccc2c1O[C@@H](CN(C)Cc1ccc(Oc3ccccc3)cc1)[C@@H](C)CN([C@@H](C)CO)C2=O,inactive: 0.96
16,CCCCCN1CC=C[C@]23O[C@@H]4/C=C/CCC(=O)N(C)[C@H](C)[C@@H](c5ccccc5)OC(=O)[C@@H]4[C@H]2C(=O)N(c2ccccc2Cl)[C@@H]3C1=O,inactive: 0.918
17,C[C@@H]1CN([C@@H](C)CO)C(=O)c2cc(NC(=O)Nc3ccccc3)ccc2O[C@H]1CN(C)S(C)(=O)=O,inactive: 1
18,O=C([C@H]1[C@H](CO)[C@H]2Cn3c(cccc3=O)[C@H]2N1CC1CCCC1)N1CCOCC1,inactive: 1.03
19,C=CCSC1=N[C@@]2(COCc3ccc(OC)cc3)Oc3ccccc3[C@H]([C@H]2CO[Si](C)(C)C(C)(C)C)N1C(=O)c1ccccc1,inactive: 0.991
